{"source": "PubChem BioAssay AID1466", "about": "(National Center for Advancing Translational Sciences (NCATS), 2008)", "note": "Hit rate of the full screen: of about 200,000 compounds, about 10 (0.005%) were called active. Inconclusive results, whose numbers are uncertain, are shown with a selection of clear calls. Calls follow the shape of the dose curve; as a rule, active = well fitted inhibition curve with a large enough effect; inconclusive = small, poorly fitted or top-dose-only effect, or effect the other way, or another doubt; inactive = no such curve, though single readings can be large or run the other way. Potencies of inconclusive entries are left out as doubtful fits. Potency is read from the fitted curve at half-maximal effect; tags tell the direction and shape of the fitted curve.", "data": [{"target": "Lysosomal alpha-glucosidase (Homo sapiens) (UniProt P10253)", "test": "qHTS Assay for Inhibitors of Human alpha-Glucosidase as a Potential Chaperone Treatment of Pompe Disease;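 as to activity change, negative = inhibition: plate controls were uninhibited enzyme wells for no effect and no-enzyme background for full effect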", "settings": "purified human GAA, 4-MU-alpha-glucoside fluorescence; activity change, negative = inhibition: at 76.9 µM (top of the series) unless noted", "in_short": "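qHTS format, compound range up to 77 uM. Human lysosomal enzyme at 4 nM, 400 uM 4-MU glucoside substrate, pH 5.0, 20 min room temperature; fluorescence after alkaline stop gives activity normalized to controls.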", "values": [{"compound": "O=C(CSc1nnc2ccccn12)NCCc1ccc(F)cc1", "Potency": "inconclusive [inhibitor, partial curve, poor fit]"}, {"compound": "O=C(CN1C(=O)C2CC=C(Cl)CC2C1=O)NCc1ccccc1", "note": "(stereo not given)", "Potency": "inconclusive [inhibitor, partial curve]"}, {"compound": "Cc1ccc2cc(CN(CCN(C)C)C(=O)Nc3ccc(Cl)cc3)c(=O)[nH]c2c1", "Potency": "inconclusive [inhibitor, full curve, poor fit]"}, {"compound": "Cc1ccccc1CN1CCc2c(OCC(=O)N3CCCc4ccccc43)cccc2C1=O", "Potency": "inconclusive [inhibitor, single point]"}, {"compound": "COc1ccc(/C=N/n2c(SC)nnc(C(C)(C)C)c2=O)cc1OC", "Potency": "inconclusive [inhibitor, single point]"}, {"compound": "NC1=NC(=O)C(Cc2ccccc2)S1", "note": "(stereo not given)", "activity change, negative = inhibition": "inconclusive: 15.4% [activator]"}, {"compound": "CCOC(=O)c1cc(=O)[nH]c2ccccc12", "activity change, negative = inhibition": "inconclusive: 3.01% [activator]"}, {"compound": "O=C(NCc1cccs1)c1cccc(Nc2nc3ccc(Br)cc3[nH]2)c1", "Potency": "inconclusive [inhibitor, single point]"}, {"compound": "C#CCOCCOCCOCCNc1nc(N2CCN(C(=O)Cn3cc(CCCCN)nn3)CC2)nc(N2CCN(C(=O)Cn3cc(CC(C)O)nn3)CC2)n1", "note": "(stereo not given)", "Potency": "inconclusive [inhibitor, partial curve, poor fit]"}, {"compound": "CC(C)CCn1c(N)c(S(=O)(=O)c2cccs2)c2nc3ccccc3nc21", "Potency": "inconclusive [activator, partial curve]"}, {"compound": "CC1CCC/C(=N/Nc2ccc([N+](=O)[O-])cc2[N+](=O)[O-])C1", "note": "(stereo not given)", "activity change, negative = inhibition": "inactive: -11.6%"}, {"compound": "O=C(NCC1COc2ccccc2O1)C1C2C=CC3(CN(Cc4cccs4)C(=O)C13)O2", "note": "(stereo not given)", "Potency": "inconclusive [inhibitor, full curve]"}, {"compound": "CC(C)C(=O)Nc1ccc2c(c1)oc1ccccc12", "Potency": "inconclusive [inhibitor, single point]"}, {"compound": "CC(=O)C1=C(C)OC(N)=C(C#N)C1c1cccnc1", "note": "(stereo not given)", "activity change, negative = inhibition": "inactive: -8.43%"}, {"compound": "CCCOc1ccc(/C(O)=C2\\C(=O)C(=O)N(CCCOC)C23C(=O)N(C)c2ccccc23)cc1", "note": "(stereo not given)", "Potency": "inconclusive [inhibitor, single point]"}, {"compound": "CNc1nc(-c2ccccc2)cc(C)c1S(C)(=O)=O", "Potency": "inconclusive [activator, partial curve]"}, {"compound": "COc1ccccc1-c1cc(C(=O)N/N=C/c2cccs2)c2ccccc2n1", "Potency": "inconclusive [inhibitor, partial curve, poor fit]"}, {"compound": "OC(CNCc1ccccc1F)(c1ccc(F)cc1)c1ccc(F)cc1", "Potency": "inconclusive [inhibitor, partial curve, poor fit]"}, {"compound": "CC(=O)Nc1ccc(-c2cn3cccnc3n2)cc1", "Potency": "inconclusive [activator, partial curve]"}, {"compound": "Cc1cc(Nc2nnnn2-c2ccccc2)n(-c2ccc(Cl)cc2)n1", "activity change, negative = inhibition": "inconclusive: -16.4% [inhibitor]"}, {"compound": "O=C(CCNc1n[nH]c(=O)[nH]c1=O)N/N=C/c1ccc(Cl)cc1", "Potency": "inconclusive [inhibitor, partial curve]"}, {"compound": "Cn1c(-c2ccc(N)cc2)nc2ccccc21", "Potency": "inconclusive [activator, partial curve]"}, {"compound": "COc1ccc(/C=N/NC(=O)c2cccc([N+](=O)[O-])c2)cc1OS(=O)(=O)c1ccccc1", "Potency": "inconclusive [inhibitor, single point]"}, {"compound": "Cc1ccccc1-c1c(C)oc2cc(O)ccc2c1=O", "Potency": "inconclusive [activator, partial curve, poor fit]"}, {"compound": "COc1ccc(N=C2SC(C(=O)N3CCN(c4ccc([N+](=O)[O-])cc4)CC3)CC(=O)N2C)cc1", "note": "(stereo not given)", "Potency": "inconclusive [inhibitor, full curve, poor fit]"}, {"compound": "COc1ccc2oc3ccc(OC)cc3c(=O)c2c1", "activity change, negative = inhibition": "inconclusive: 33.2% [activator]"}, {"compound": "Cc1cccc(/C=N/c2sc3c(c2C#N)CCN(Cc2ccccc2)C3)c1O", "activity change, negative = inhibition": "inconclusive: 19.6% [activator]"}, {"compound": "Cc1cc(-n2c(=O)c(C#N)cc3c(=O)n4ccccc4nc32)no1", "Potency": "inconclusive [activator, partial curve]"}, {"compound": "Cc1cc(C)cc(Nc2ncc3c(n2)CC(c2ccco2)CC3=O)c1", "note": "(stereo not given)", "Potency": "inconclusive [inhibitor, single point]"}, {"compound": "Cc1ccc(CNC(=O)CCNS(=O)(=O)c2cccc3nonc23)cc1", "activity change, negative = inhibition": "inconclusive: -15.7% [inhibitor]"}, {"compound": "Nc1cc(=O)[nH]c(=S)n1-c1cccc(C(F)(F)F)c1", "Potency": "inconclusive [inhibitor, full curve, poor fit]"}, {"compound": "O=C(Nc1nnc(SCc2ccc(Cl)cc2)s1)C1CCCO1", "note": "(stereo not given)", "Potency": "inconclusive [inhibitor, single point]"}, {"compound": "CCOc1ccc(N=C2NC(=O)S/C2=C\\c2ccc(N(C)C)cc2)cc1", "activity change, negative = inhibition": "inactive: -3.84%"}, {"compound": "COCCOC(=O)C1=C(C)Nc2ncnn2C1c1ccccc1", "note": "(stereo not given)", "Potency": "inconclusive [inhibitor, single point]"}, {"compound": "CCOC(=O)c1cc(NC(=O)Nc2ccccn2)c(C)nc1C", "Potency": "inconclusive [activator, full curve, poor fit]"}, {"compound": "COc1ccccc1/C=N/NC(=O)CCn1cnc2ccccc21", "Potency": "inconclusive [inhibitor, partial curve]"}, {"compound": "N#Cc1ccc(COC(=O)C2CCC(=O)N2)cc1", "note": "(stereo not given)", "Potency": "inconclusive [inhibitor, single point]"}, {"compound": "Cc1ccc(S(=O)(=O)N2CCCCC2C(=O)Nc2nncs2)cc1", "note": "(stereo not given)", "Potency": "inconclusive [inhibitor, single point]"}, {"compound": "C=CCN1C=CC(=C/C=C(/C#N)C(=O)OCC)C=C1", "Potency": "inconclusive [inhibitor, partial curve, poor fit]"}, {"compound": "CCC(=O)N1CCc2cc(OC)c(OC)cc2C1COc1ccc(OC)cc1", "note": "(stereo not given)", "Potency": "inconclusive [inhibitor, single point]"}]}]}
